Test results published in publication PMC12040169 (PLOS Biology, 2025).
Some of the results follow.

System: T1, C. trachomatis L2/434/Bu expressing GFP (CTL2-GFP)
T1 construct: L2/434/Bu GFP intracellular growth in HeLa cells
Design: species or system HeLa; C. trachomatis total inclusion area by high-content imaging, normalised to DMSO
Settings: total inclusion area; 28.5 h, 10 µM; inhibitor
Outline: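 Post-fluorescence-read fixation, DNA staining with Hoechst and high-content imaging; GFP inclusion area and number per well, and nuclei counts, used as proxies for bacterial growth and host viability.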

| SMILES | % of control remaining |
| --- | --- |
| COc1cc(-c2cncc(N[C@@H](C)c3ccccc3)n2)cc(OC)c1OC [CBK065551] | 113.396 |
| CN(C)C(=O)c1ccc(-c2ccc3c(c2)COC(C2CCN(C(=O)Cc4ccc(C#N)cc4)CC2)O3)cc1 (stereo not shown) [CBK149760] | 55.6376 |
| CCOC(=O)C1N(C)C(=O)C(Cc2c(Cl)cccc2Cl)=C(C)N1C (stereo not shown) [CBK112643] | 66.6139 |
| CNC(=O)C1(Cc2ccc(-c3cccc(C)c3)cc2)CCN(C(=O)C(C)(C)C)CC1 [CBK285755] | 102.186 |
| NC(=O)C1CCN(C2CC(=O)N(c3cccc([N+](=O)[O-])c3)C2=O)CC1 (stereo not shown) [CBK265555] | 96.5501 |
| O=C(C1=C(O)C(=O)N(CCCN2CCOCC2)C1c1ccc(Cl)c(Cl)c1)c1cccs1 (stereo not shown) [CBK264565] | 98.6848 |
| Cc1nnc(CN(C)C2CCN(CC3CCCC3)C2)n1C (stereo not shown) [CBK304851] | 81.4896 |
| O=C(O)c1cc(C(=O)O)n(Cc2ccccc2Cl)n1 [CBK269381] | 119.197 |
| Cc1ccc(S(=O)(=O)N(CC(=O)N/N=C\c2ccc3c(c2)OCO3)c2cccc3cccnc23)cc1 [CBK262478] | 72.8381 |
| Cc1ccc(C(=O)C2=C(O)C(=O)N(Cc3cccnc3)C2c2cccc(Oc3ccccc3)c2)o1 (stereo not shown) [CBK264619] | 108.774 |
| O=C(Nc1cccnc1)N1CCN(CCc2ccccc2)CC1 [CBK158937] | 67.4203 |
| COc1ccc(C=O)cc1CSc1nc2ccccc2[nH]1 [CBK266209] | 103.287 |
| Cc1cc(C)n(C2CN(C(=O)NCCCOc3cccnc3)C2)n1 [CBK307632] | 63.1823 |
| CCCC/C=C/c1cnc(N)c(Nc2ccc(OC)cc2C)n1 [CBK064090] | 119.75 |
| CN(CCN1CCCCC1)C(=O)C1CC(=O)Nc2ccccc21 (stereo not shown) [CBK282729] | 132.441 |
| Cc1ccc(-c2ccccc2CC2(C(=O)Nc3cccc(C(N)=O)c3)CCOCC2)c(C)c1 [CBK286423] | 74.9578 |
| COc1ncc(-c2cnc3[nH]c(=O)n(CC4CCOCC4)c3n2)cn1 [CBK064898] | 126.147 |
| COCCNC(=O)c1nn2c(c1Br)NC(c1cccs1)CC2C(F)(F)F (stereo not shown) [CBK307178] | 62.498 |
| O=C1CN(C(=O)CCn2c(C(F)(F)F)cc3cccnc32)CCN1 [CBK284888] | 107.938 |
| CCOc1cccc(C(=O)NN2CCN(C)CC2)c1 [CBK268184] | 96.2545 |
| C#CCOc1cncc(Cl)n1 [CBK113370] | 78.5823 |
| Cc1ccc(S(=O)(=O)NC(=O)c2cc(C)n(-c3ccc(N(C)C)cc3)c2C)cc1 [CBK296085] | 69.9571 |
| COc1cc(NC(=O)c2c(C)[nH]c(=O)[nH]c2=S)cc(C(F)(F)F)c1 [CBK115495] | 90.7659 |
| Cc1ccc(-c2nc(Nc3ccc(F)cc3)sc2CC(=O)O)cc1 [CBK264286] | 108.526 |
| CC(C)Cc1cnc2c(c1SCc1ccc(F)cc1)c(=O)n(C)c(=O)n2C [CBK294409] | 111.186 |
| CCN1CCN(Cc2c(C(C)C)[nH]c3ncccc23)CC1 [CBK285343] | 88.819 |
| O=C(NC1CCN(C(=O)Cn2ccc3ccncc32)CC1)C1CC1 [CBK284731] | 69.5255 |

| SMILES | % of control remaining |
| --- | --- |
| CCC1(CC)Cc2ccccc2-c2nc(NN)n(Cc3ccccc3)c(=O)c21 [CBK263217] | 13.496 |
| CC(C(=O)Nc1ccc(S(N)(=O)=O)cc1)N1Cc2ccccc2C1=O (stereo not shown) [CBK307607] | 63.9994 |
| COc1cc(Nc2nc(-c3cccc(NC(C)=O)c3)cn3ccnc23)cc(OC)c1OC [CBK038093] | 108.541 |
| Cc1ccc(S(=O)(=O)c2cc3c(=O)n4ccccc4nc3n(CCCN3CCOCC3)c2=N)cc1 [CBK265590] | 94.0364 |
| Brc1ccsc1-c1csc(-c2ccccc2)n1 [CBK019859] | 78.5009 |
| CCOC(=O)C1=C(N)OC2=C(C(=O)CC(C)(C)C2)C1c1cc(OCC)ccc1OCC (stereo not shown) [CBK008699] | 109.379 |
| CC(NC1=NC(C)(C)Cc2ccccc21)C(=O)O (stereo not shown) [CBK262575] | 105.42 |
| O=C(c1cccs1)N1CCC(n2cnc3cccnc32)CC1 [CBK283938] | 65.0987 |
| Cc1ccc2nc(SCCC(=O)O)cc(C)c2c1 [CBK286861] | 88.8169 |
| c1ccc2c(c1)CCCN2Cc1ncc[nH]1 [CBK138332] | 85.6173 |
| COC(=O)c1ccccc1NC(=O)CNC(=O)c1ccccc1Cl [CBK269113] | 111.169 |
| COc1c(C)cccc1C(=O)N1CCC(c2cc3cnccc3[nH]2)CC1 [CBK283460] | 97.5258 |
| CN(C)c1cccc(NC(=O)Nc2ncc(Br)c3cccnc23)c1 [CBK107633] | 95.1731 |
| COc1cc(-c2ccc(NCCn3cc[nH]c3=O)nc2)cc(OC)c1OC [CBK036907] | 140.078 |
| Cc1cc(O)ccc1Nc1cc(-c2cc3ccccc3s2)ncn1 [CBK091057] | 62.3602 |
| O=C(NCCNc1cnccn1)c1cccc(Cl)c1Cl [CBK305727] | 70.4677 |
| CN(C)Cc1ccc(C(=O)N2CCCC2(C)C(=O)N(C)C)cc1 (stereo not shown) [CBK281955] | 102.393 |
| O=C(NC(Cc1ccsc1)c1cccnc1)C1CCOCC1 (stereo not shown) [CBK285110] | 103.759 |
| COc1ccc([C@@]23CC[C@H](NC(=O)Nc4cccc(C(F)(F)F)c4F)C[C@@H]2CN(C)C3)cc1OC [CBK063200A] | 52.7563 |
| c1ccc(Oc2cccc(OCCCN3CCCCC3)c2)cc1 [CBK261781] | 32.198 |
| Cc1ccc(C(=O)Nc2ccc(C)nc2C)cn1 [CBK200289] | 110.126 |
| CCc1nc2c(OCc3ccc(Cl)cc3)cccn2c1N(C=O)CC(=O)N(C)C [CBK147518] | 101.357 |
| COc1cccc(C(=O)NC(c2ccc(OC)c(OC)c2)c2cc(Cl)c3cccnc3c2O)c1 (stereo not shown) [CBK264048] | 110.313 |
| CCCN(CC1CCCO1)C(=O)c1cnn(-c2ccc(F)cc2)c1 (stereo not shown) [CBK283317] | 97.3946 |
| CNC(=O)C1(Cc2ccc(-c3ccccc3)cc2)CCN(C(=O)Cc2ccccc2F)CC1 [CBK285768] | 121.09 |
| CCc1ccc(S(=O)(=O)Nc2cccnc2)cc1 [CBK287782] | 88.8565 |
| CC1=NN(C(=O)c2ccc(Cl)cc2)C(C)(C)C1 [CBK058904] | 100.081 |

| SMILES | % of control remaining |
| --- | --- |
| NC(=O)CSc1nnc(COc2ccc(Br)cc2)n1-c1ccccc1 [CBK267277] | 100.205 |
| O=C1c2ccc(Oc3ccc4c(c3)C(=O)N(c3ccncc3)C4=O)cc2C(=O)N1c1ccncc1 [CBK261399] | 94.0433 |
| COCc1ccc(C(=O)N2CCCC(c3cc4ncccc4[nH]3)C2)o1 (stereo not shown) [CBK282106] | 81.6404 |
| COC(=O)c1ccccc1NC(=O)CCSc1ccc(Cl)cc1 [CBK263817] | 78.2718 |
| O=C(O)CSc1nc2ccccc2n1CC(=O)O [CBK267128] | 108.611 |
| CCCCc1ccc(-c2nccn2CC2CN(C(C)=O)CCO2)s1 (stereo not shown) [CBK307600] | 66.56 |
| O=C1CC(N2CCC(c3nc4ccccc4o3)CC2)C(=O)N1Cc1cccs1 (stereo not shown) [CBK268735] | 99.4219 |
| O=S(=O)(Nc1nc2cc(Cl)ccc2o1)c1ccc(Oc2ccccc2)cc1 [CBK050499] | 110.616 |
| Cc1nc(NS(=O)(=O)c2ccc3ccccc3c2)sc1C(=O)O [CBK045548] | 59.6676 |
| O=C(Cn1c(C2CCCNC2)cc2cccnc21)N1CCCCCC1 (stereo not shown) [CBK285014] | 99.4483 |
| CCOc1ccc(CN2CCNC(=O)C2CC(=O)O)cc1 (stereo not shown) [CBK269242] | 43.8475 |
| Cc1cc2oc(C(=O)Nc3nc(-c4ccc(S(=O)(=O)N5CCCC5)cc4)cs3)c(C)c2cc1C [CBK266309] | 120.96 |
| CC1CCN(Cc2ccc(-c3nnn(CC(=O)NCc4ccc(S(C)(=O)=O)cc4)n3)cc2)CC1 [CBK144152C] | 95.1513 |
| Cc1cc(NC(=O)c2cccc(C(F)(F)F)c2)nc2c1c(=O)oc1ccccc12 [CBK291163] | 102.195 |
| Cc1nn(C)c(Cl)c1S(=O)(=O)Nc1cc(N2CCN(C(=O)OC(C)(C)C)CC2)c2occc2c1 [CBK067787] | 92.0363 |
| CSCCCNC(=O)c1cnn2c(C)c(Cc3ccccc3C)c(C)nc12 [CBK162028] | 96.3227 |
| CCC1=NN2C(=N)/C(=C/c3ccc(OC)cc3)C(=O)N=C2S1 [CBK101905] | 104.192 |
| Cc1ccc(CN(CCCn2ccnc2)Cc2c[nH]cn2)s1 [CBK283136] | 84.0959 |
| COc1cc(C(=O)O)ccc1OCC(=O)Nc1ccc(F)cc1 [CBK287101] | 90.4516 |
| Cn1nccc1C(O)c1cc2n(n1)CCCN(C(=O)Cc1cccs1)C2 (stereo not shown) [CBK306930] | 93.19 |
| O=C(OCc1ccccc1)N1CCC2(CC1)CN(CCO)c1ccccc12 [CBK022627] | 81.2005 |
| O=C(Nc1nnc(-c2ccco2)o1)c1ccccc1 [CBK287420] | 101.756 |
| Cc1ccccc1-n1c(SC(C)C)nc2sc3c(c2c1=O)CC(C)(C)OC3 [CBK091874] | 71.2472 |
| Cc1nc2c(c(=O)[nH]1)CCN(Cc1ccc(-c3ccccc3)cc1)C2 [CBK283970] | 93.2932 |
| Cc1cccc(-c2ncc(NC(=O)COc3ccc([N+](=O)[O-])cc3)nc2-c2cccnc2)c1 [CBK037096] | 124.157 |
